The whole screen tested about 50,000 compounds, of which about 800 (1.6%) showed an effect of 50% or more. The list shows a part of the results.

The target of the experiment is Bcl-2-like protein 10 (Homo sapiens) (UniProt Q9HD36). Briefly: TR3 peptide-Bcl-B binding displacers, biochemical primary FP assay, phenotype converters (AID 1240).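 Also: 0% = Bcl-B with tracer peptide and DMSO and 100% = tracer peptide lacking Bcl-B.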 The following applies: GST-Bcl-B / FITC-TR3 peptide fluorescence polarization; stronger effect = higher value; compound at 3.75 mg/L. (In fluorescence polarisation assays a small probe gives low polarisation when free and higher when bound to something large.)
Sequence of UniProt Q9HD36 (Q9HD36 whole entry, looked up): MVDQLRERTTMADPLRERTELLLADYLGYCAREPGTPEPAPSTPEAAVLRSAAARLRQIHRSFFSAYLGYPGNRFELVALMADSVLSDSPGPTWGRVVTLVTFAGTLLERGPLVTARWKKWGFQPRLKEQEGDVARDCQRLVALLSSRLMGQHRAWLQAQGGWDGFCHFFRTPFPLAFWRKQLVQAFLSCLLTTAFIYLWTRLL
As for `Nc1csc(C(c2ccccc2)c2ccccc2)n1`, the displacement is -3%.
Regarding `COc1ccccc1N1CCN(C(=O)CN(c2ccc(Br)cc2)S(=O)(=O)c2ccccc2)CC1`, the displacement is -0.7%.
For `CCOC(=O)C1=C(C)OC(N)=C(C(=O)OCC)C1c1ccccc1[N+](=O)[O-]` (centres undefined), the displacement came to 33.2%.
On to `CCOc1ccccc1NC(=O)Cc1ccccc1`, for which the displacement worked out at 10.5%.
Take `O=C1NC(=O)C(=Cc2ccc(OC(=O)c3cccc([N+](=O)[O-])c3)cc2)C(=O)N1`: the displacement amounted to 1.8%.
On to `COC(=O)C1=C(C)NC(C)=C(C(=O)OC)C1c1ccc(-c2cccc(Br)c2)o1`, for which the displacement is 8.8%.
On to `O=C(N/N=C/c1ccc(Cl)cc1)C(=O)Nc1cccc(Cl)c1`, for which the displacement amounted to 7.1%.
Take `CCOC(=O)N1CCN(C(=O)CN2C(=O)c3ccccc3C2=O)CC1`: the displacement was -10%.
In the case of `O=c1c2c(nc3cc(-c4ccc(Cl)cc4)[nH]n13)CCC2`, the displacement was found to be 21.6%.
Regarding `Cc1ccc(NC(=O)c2cc3c(C)nn(-c4ccccc4)c3s2)cc1[N+](=O)[O-]`, the displacement was -2.7%.
In the case of `O=C(N(c1cccc(C(F)(F)F)c1)C1C=CS(=O)(=O)C1)C(Cl)(Cl)Cl` (centres undefined), the displacement is 16.6%.
As to `Cc1ccc(-c2noc(COc3ccccc3C)n2)cc1`, the displacement is -3.2%.
Take `c1ccc(-n2nnnc2SCc2cccc(CSc3nnnn3-c3ccccc3)n2)cc1`: the displacement is -8.8%.
With `CCOC(=O)c1c(N2C(=O)C=CC2=O)sc2c1CCCC2` the figure was 0.3%; with `CC1(C)CC(=O)C2=C(C1)N=C1c3ccccc3C(=O)C1C2c1cccc(Cl)c1` (centres undefined), 3.9%; with `CCOC(=O)c1ccc(NC(=S)NC(NC(=O)CC(C)C)C(Cl)(Cl)Cl)cc1` (centres undefined), -3.4%.
With `Cc1ccc(-n2[nH]c(C)c(C=Nc3ccc(N(C)C)cc3)c2=O)cc1C` the figure was -4.3%; with `NC(=O)C1CCN(C(=O)c2ccccc2F)CC1`, 12.8%; with `O=C1NN(c2cccc(Cl)c2)C(=O)/C1=C/c1ccc2c(c1)OCO2`, 3.3%.
Then `O=[N+]([O-])c1cc(N[C@@H]2O[C@H](CO)[C@@H](O)[C@H](O)[C@@H]2O)ccc1Cl`, with 5.2%.
As to `Cc1cc(N2C(=O)NC(=O)/C(=C/c3cc4c(cc3[N+](=O)[O-])OCO4)C2=O)ccc1Br`, the displacement turned out to be 31.3%.
On to `CCOC(=O)c1c(C)nc2sccn12`, for which the displacement is 4.6%.
`CCNc1nc(NC(C)C)nc(Oc2ccc(C(=O)OC)cc2)n1`: the displacement stood at 5.9%.
Then `O=C1/C(=C\c2ccc3c(c2)OCO3)SC(=S)N1c1cccc(C(F)(F)F)c1`, with 12.3%; and `COC(=O)c1c(C)oc2cc(Br)c(OS(C)(=O)=O)cc12`, with 9.4%.
Turning to `CCc1ccc(OCCNc2cc(N3CCCC3)ccc2[N+](=O)[O-])cc1`, the displacement stood at 5%.
As to `O=C1C(=O)N(c2cccc([N+](=O)[O-])c2)C(c2ccc3c(c2)OCO3)/C1=C(/O)c1ccccc1` (centres undefined), the displacement is -8.4%.
With `CC(C)N(C(=O)c1ccc(-c2nc3ccccc3s2)cc1)C(C)C`, the displacement turned out to be 7.6%.
As to `Cc1ccc(NC(=O)c2ccco2)c([N+](=O)[O-])c1`, the displacement was -2.4%.
Regarding `CCOc1ccc(N2C(=O)NC(=O)/C(=C/c3ccc(-c4cccc(C(=O)O)c4)o3)C2=O)cc1`, the displacement was -13.6%.
Regarding `c1cc(-c2nnc(-c3ccco3)o2)cc(-c2nnc(-c3ccco3)o2)c1`, the displacement was 15.8%.
Then `O=C1C2C3C=CC(C3)C2C(=O)N1c1cc(Cl)ccn1` (centres undefined), with 4%; and `O=C(O)c1ncc(-c2ccccc2)cn1`, with 7.9%; and `COc1ccc(C(=O)/C=C\NCC(=O)c2ccccc2)c(OC)c1`, with 2.5%.
Regarding `O=C(O)CSCc1cccc(Br)c1`, the displacement was -1.7%.
Turning to `O=[N+]([O-])c1ccc2nc(N3CCOCC3)sc2c1`, the displacement was -22.8%.
On to `O=C(COc1ccc(Cl)cc1Br)NCc1ccco1`, for which the displacement is -2.4%.
`Cc1ccccc1C(=O)N/N=C/c1ccc(OCC(=O)N2CCCCC2)cc1`: the displacement is -5.7%.
In the case of `COc1ccc(/C=N/Nc2cc(-c3ccccc3)nc(C)n2)cc1`, the displacement was -9.7%.
With `COc1ccc(N(CC(=O)NCc2ccccn2)S(=O)(=O)c2ccccc2[N+](=O)[O-])c(OC)c1` the figure was 13.6%; with `O=[N+]([O-])c1cccc(S(=O)(=O)N2CCOCC2)c1`, 15.9%.
As to `CC12C=CC(C)(O1)C1C(=O)N(c3ccc(Br)cc3)C(=O)C12` (centres undefined), the displacement was -6.1%.
With `O=C(CCCC(=O)OCC(F)(F)C(F)F)Nc1ccc(I)cc1` the figure was 16.7%; with `O=C1C(=O)N(c2cccc(Cl)c2)C(c2ccccc2[N+](=O)[O-])/C1=C(\O)c1ccccc1` (centres undefined), 0.4%; with `O=C(O)C1C2CCC(C2)C1C(=O)Nc1nc2ccc(F)cc2s1` (centres undefined), -8.2%.
Consider `O=C(Nc1ccc(-c2nc3ccccc3o2)c(O)c1)c1ccc(-c2ccc([N+](=O)[O-])cc2)o1`, for which the displacement came to 6.6%.
For `CC(=O)Nc1cccc(NC(=O)c2ccc(Cl)c([N+](=O)[O-])c2)c1`, the displacement is -1.1%.
With `COc1c(Cl)cc(C(=O)Nc2ccc(O)c(-c3nc4cc(C)ccc4o3)c2)cc1Cl` the figure was 0.4%; with `COC(=O)C1=C(C)N(c2ccc(F)cc2)C(=O)/C1=C\c1ccc(OCC(=O)NCC2CCCO2)cc1` (centres undefined), 10.9%; with `CN1C(=O)NC(=O)/C(=C/c2cn(Cc3ccccc3)c3ccccc23)C1=O`, -5.3%.
For the molecule `O=C(Cc1ccc(Cl)cc1)NNC(=O)c1cccnc1`, the displacement is -6.7%.
Consider `CCOc1ccc(-c2nc(Cc3c(F)cccc3Cl)no2)cc1`, for which the displacement came out at 17.2%.
On to `O=c1/c(=C\c2ccc(OCc3ccc(Cl)cc3Cl)cc2)sc2nc3ccccc3n12`, for which the displacement is -20.5%.
For the molecule `COc1c(Br)cc(Br)cc1/C=N/Nc1nc(N2CCOCC2)nc(N2CCOCC2)n1`, the displacement worked out at 4.2%.
With `Cc1cc(NS(=O)(=O)c2ccc(NC(=O)c3cc(Cl)cc(Cl)c3)cc2)no1`, the displacement came out at 11%.
Turning to `CCOc1ccc(N2C(=O)CC(SC(=NCCCO)Nc3ccccc3)C2=O)cc1` (centres undefined), the displacement is -2.6%.
Turning to `Cc1c(NC(=O)c2ccc(Br)cc2)cccc1-c1nc2ncccc2o1`, the displacement is -6%.
Regarding `C/C(=N\NC(=O)c1cc(C)[nH]n1)c1ccc(N)cc1`, the displacement was -10%.
For `COc1ccc(C2C3=C(CC(c4ccccc4)CC3=O)Nc3ccccc3N2C(=O)C(C)C)cc1OC` (centres undefined), the displacement came out at 41.6%.
For `Nc1cccc(Nc2nc(OC(C(F)(F)F)C(F)(F)F)nc(OC(C(F)(F)F)C(F)(F)F)n2)c1`, the displacement was found to be 16.9%.
For the molecule `COc1ccc(CNC(=O)c2nn3c(c2Cl)NC(c2ccc(C)cc2)CC3C(F)(F)F)cc1` (centres undefined), the displacement was -0.6%.
Then `Cc1ccc(C(=O)N/C(=C/c2cccnc2)C(=O)N2CCCCCC2)cc1`, with 2.1%; and `Cc1cc(Cl)ccc1OC(C)C(=O)NCc1ccco1` (centres undefined), with -3.1%.
Consider `COc1ccc(Cl)cc1NC(=O)c1cccc(N(C)C)c1`, for which the displacement is -0.1%.
Take `CN(Cc1ccccc1)c1nc2ccccn2c(=O)c1C=C1SC(=S)N(CCc2ccccc2)C1=O`: the displacement turned out to be 0%.
Regarding `CNC(=O)C(=O)Nc1ccc(C(C)C)cc1`, the displacement came to 6.9%.
Regarding `O=C(O)C(Cc1ccccc1)N1C(=O)/C(=C/C=C/c2ccccc2)SC1=S` (centres undefined), the displacement amounted to 10%.
Then `CCOc1cc(/C=C2\SC(=S)N(NC(=O)c3ccccc3O)C2=O)ccc1O`, with 11.8%.
`O=C1NC(c2cccc(I)c2)Oc2ccccc21` (centres undefined): the displacement was -8.6%.
In the case of `CN1CCN(C(=O)c2ccccc2NC(=O)c2cccnc2)CC1`, the displacement worked out at 1.4%.
For the molecule `C/C(=N\Nc1nnc2c(n1)[nH]c1ccccc12)c1ccc(C)o1`, the displacement amounted to 17.4%.
Turning to `Cc1ccc(C(c2ccc(C)o2)c2cc(Br)cc(Br)c2O)o1`, the displacement is -17.4%.
Regarding `CCC(CC)C1C(C#N)=C(N)Oc2n[nH]c(-c3ccccc3)c21` (centres undefined), the displacement was -5.1%.
Turning to `N#Cc1sc2nc(C3CC3)cc(-c3ccc(F)cc3)c2c1N`, the displacement is 3.4%.
For the molecule `CC(=O)c1c(C)nc2ccc(OC(F)(F)F)cc2c1-c1ccccc1`, the displacement turned out to be 8.9%.
With `CC(=O)c1ccc(NN=C(C#N)C#N)cc1`, the displacement was -10%.
Turning to `COc1ccc(Cl)cc1NS(=O)(=O)c1c(C)cc(C)cc1C`, the displacement was -4.7%.
For the molecule `O=C(NCCO)Nc1ccc(Cc2ccc(NC(=O)NCCO)cc2)cc1`, the displacement worked out at 1%.
For `CCOC(=O)c1c(NC(=O)c2ccc(C)c([N+](=O)[O-])c2)sc(C(=O)Nc2ccccc2F)c1C`, the displacement was -1.3%.
`Nc1nnc(SCC(=O)Nc2ccc([N+](=O)[O-])cc2)s1`: the displacement was -0.6%.
As to `Cc1[nH]n(-c2ccc(Cl)cc2)c(=O)c1/C=N/NC(=O)c1ccccc1[N+](=O)[O-]`, the displacement is 2.6%.
On to `CC(=O)c1cccc(NC(=O)c2cc(S(=O)(=O)N3CCOCC3)ccc2Cl)c1`, for which the displacement is 4.1%.
Consider `CC1(C)CC(=O)c2cc(-c3ccccc3)n(-c3ccccc3)c2C1`, for which the displacement was 2.2%.
On to `O=c1cc(C(F)(F)C(F)(F)F)c2cc3c4c(c2o1)CCCN4CCC3`, for which the displacement worked out at 66.7%.
On to `Cc1ccc(-c2csc(NC(=O)c3ccc(C)c(C)c3)n2)cc1`, for which the displacement was -5.6%.
In the case of `CCOC(=O)N1CCN(c2cc(N3CCCCC3)c(F)cc2[N+](=O)[O-])CC1`, the displacement was -5.8%.
On to `O=C(N=Nc1c(O)[nH]c(=O)[nH]c1=O)c1cncc(Br)c1`, for which the displacement was -7.9%.
With `CCOc1ccc(C(=O)Nc2ccc(-c3cc4ccccc4oc3=O)c(C)c2)cc1Cl`, the displacement amounted to 2.4%.
`O=CN1N=C(c2ccc3ccccc3c2)CC1c1ccccc1` (centres undefined): the displacement is 4.2%.
As to `C/C(=N\NC(=O)C1(C)CC1(Br)Br)c1ccc(Br)s1` (centres undefined), the displacement was -1.2%.
For the molecule `CC(C)(O)C#Cc1ccc(C(=O)N2CCC(Cc3ccccc3)CC2)cc1`, the displacement was 6.6%.
`CC(C)(C)c1csc(NC(=O)c2c(F)c(F)c(F)c(F)c2F)n1`: the displacement was found to be 2.4%.
With `CCc1ccc(OCC(=O)Nc2nc(-c3ccccc3)cs2)cc1` the figure was 7.6%.
With `COc1ccc(C)cc1NC(=O)C(=O)NN=C1CCN(C)CC1` the figure was 0.8%; with `CCOc1ccc(NC(=O)CN(c2cccc(OC)c2)S(=O)(=O)c2ccccc2)cc1`, 13.8%; with `CCOC(=O)C1=C(C)N=c2s/c(=C\c3ccc([N+](=O)[O-])o3)c(=O)n2C1c1ccccc1Cl` (centres undefined), 42.7%.
Take `COc1ccc(OC)c(NC(=O)COc2c(C)cc(C)cc2C)c1`: the displacement came out at 13.1%.
With `O=C1CCCC2=C1C(c1ccco1)Nc1ccccc1N2` (centres undefined), the displacement amounted to 7.5%.
With `Cn1c(=O)cc(NC2CCCCC2)[nH]c1=O`, the displacement amounted to 10.3%.
For the molecule `COc1ccc(OCCCCS)cc1`, the displacement came out at 6.3%.
As to `N#Cc1c(C(F)(F)F)cc(-c2cccs2)nc1SCC(=O)Nc1ccc(S(N)(=O)=O)cc1`, the displacement is -11.6%.
For `COc1ccc(-c2cc(-c3ccccc3)n[nH]2)cc1`, the displacement is -4.3%.
With `Cc1ccc2c(Cl)c(C(=O)NCc3ccncc3)sc2c1` the figure was -6.3%.
Consider `CCOC(=O)/C(C#N)=N/Nc1ccc(NC(=O)c2ccc(N/N=C(\C#N)C(=O)OCC)cc2)cc1`, for which the displacement was found to be 20%.

The values above are taken from PubChem BioAssay AID1240 (Sanford-Burnham Center for Chemical Genomics, 2008).
